Results reported in the supplement of paper PMC3334620.
The full ranking holds about 33,000 sequences; the median of “E-score (-0.5 to 0.5)” is about -0.021, and the highest 2% start at about 0.32. This is one part of the list.

Target: T1, Zap1 (UniProt P47043)
T1 sequence: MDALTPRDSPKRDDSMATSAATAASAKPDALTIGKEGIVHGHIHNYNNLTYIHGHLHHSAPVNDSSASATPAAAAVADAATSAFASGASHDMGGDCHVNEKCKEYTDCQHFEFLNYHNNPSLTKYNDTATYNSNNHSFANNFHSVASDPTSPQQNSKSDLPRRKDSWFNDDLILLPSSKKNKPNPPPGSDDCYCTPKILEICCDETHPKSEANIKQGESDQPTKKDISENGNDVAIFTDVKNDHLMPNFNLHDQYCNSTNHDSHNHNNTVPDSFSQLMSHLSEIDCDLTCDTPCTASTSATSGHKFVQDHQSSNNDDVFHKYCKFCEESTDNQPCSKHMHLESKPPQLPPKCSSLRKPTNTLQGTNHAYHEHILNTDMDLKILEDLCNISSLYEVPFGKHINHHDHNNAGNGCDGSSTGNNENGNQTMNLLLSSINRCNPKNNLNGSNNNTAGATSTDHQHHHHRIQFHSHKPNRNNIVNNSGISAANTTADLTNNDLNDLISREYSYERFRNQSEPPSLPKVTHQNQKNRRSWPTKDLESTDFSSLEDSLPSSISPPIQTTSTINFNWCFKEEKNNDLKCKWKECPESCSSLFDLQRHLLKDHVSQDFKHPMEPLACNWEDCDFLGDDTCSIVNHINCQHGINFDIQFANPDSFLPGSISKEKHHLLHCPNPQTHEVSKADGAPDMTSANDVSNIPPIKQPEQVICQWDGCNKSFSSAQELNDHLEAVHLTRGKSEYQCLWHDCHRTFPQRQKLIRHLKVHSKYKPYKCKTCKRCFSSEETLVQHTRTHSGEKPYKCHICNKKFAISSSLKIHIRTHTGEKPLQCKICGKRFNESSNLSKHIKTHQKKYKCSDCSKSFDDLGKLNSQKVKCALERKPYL
Experiment: PBM E-score (8-mer binding enrichment) (E-score (-0.5 to 0.5)); higher = stronger / more preferred TF binding; most listed sequences are background and not binding sites
Settings: protein concentration: 200 nM; construct: GST-full length
Summary of the method: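 PURExpress in vitro transcription/translation supplied GST-tagged yeast transcription factors, either full-length or DNA-binding domain. Applied at about 100-200 nM to universal all-10-mer Agilent arrays double-stranded by primer extension, the bound protein was detected with fluorescent anti-GST. E-scores, modified Wilcoxon-Mann-Whitney statistics, were given by the Universal PBM Analysis Suite to ungapped eight-base words pooled with their reverse complements after masliner normalisation.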

Sequence	PBM E-score
GGACCCAA	-0.0434
TAACCGTA	0.31
ATCCAGGG	-0.0673
CTGCCTAC	-0.0582
CGTCGCCA	-0.167
AGTCCGGG	0.00147
GCCAGCTA	-0.0851
GGCCGGAC	-0.149
CGGGTGAA	0.118
CCCGCGCG	0.0433
GAGAGAAA	-0.059
GACTTTGC	-0.2
AGTATCTC	-0.0776
AAAACATA	0.0671
GACGGATC	-0.244
AATACGTG	-0.148
ATTGATTG	0.0592
GCTTTAAC	0.186
ATAAATTG	0.288
CGTGAACG	-0.139
CCATTCCC	-0.258
ACGCTATG	-0.2
CTAGGATA	0.0587
CGTTCACC	-0.136
AAAACGTA	0.0762

Sequence	PBM E-score
GCGATCAC	-0.0868
AAAAATAT	0.259
CCAACCTC	0.0926
GGCTCAAA	-0.176
ACTCGCCC	-0.221
AAGAGCTA	-0.0268
CTTGGCGA	-0.223
CAAGGATG	-0.208
AGACCAAC	0.038
CATAGGCC	0.054
GTTGCAAC	0.241
CTACATAA	-0.0843
CTAAAGTC	-0.179
TATAACCA	0.45
ACTATTAC	0.0281
CCTGGAGC	-0.167
AATCTTGC	0.0897
TAAGCGAA	-0.0964
ACATTTGA	0.0301
ACGGCCGG	0.0492
TGACATCA	-0.0931
ACACGTTC	-0.252
AGCCATTA	0.126
GTCAGCAA	-0.0146
ACCATCGA	-0.0155

Sequence	PBM E-score
AAGAAACC	0.142
TAATTAGA	0.147
AATGCCGG	-0.095
ATCAGCAA	0.00697
AAAGACCC	0.264
ATGCTTGA	0.0482
ATGCGCGA	-0.117
TCGATCCA	-0.0992
ATCACAAG	0.0907
ACTGGAGA	-0.271
AGGTTTAC	0.145
AGAGGACT	-0.252
GGGTATCA	0.168
ATCCGATA	-0.0474
AAGTACAA	0.0203
CACGACAA	-0.104
CTCCCCTC	-0.158
CTGAGAAA	-0.0449
CTCTTTTC	-0.109
GACGTGTA	-0.237
AACACGAA	0.143
AAGATGCG	-0.058
CTCCCGGA	-0.163
GAAGGCTA	-0.181
CTATGAAC	-0.0327

Sequence	PBM E-score
GCTGAAAA	0.163
AACACCAC	0.0741
AGTAGTCA	-0.276
CGGATCCA	0.00476
GAGTGTCC	0.0649
AATAACCT	0.454
ACATTCAA	0.00989
AGGCATAC	-0.151
ACGTCACG	-0.147
CGGAATGC	-0.136
AATGGCCC	0.0145
AGCTTACC	-0.0573
GAGGTGAC	0.308
CCATCATA	-0.163
AAAGCAGT	0.209
GAGACAAC	-0.0115
ACTCAGAA	0.138
AGGTTAAT	0.315
CAGACCTG	-0.119
CTTATCTC	0.0241
AACGAGGG	-0.12
AAGGTGCG	-0.174
GCTGTACC	0.0296
CCGGGACA	0.00573
AGGATTAG	-0.0739

Sequence	PBM E-score
ACTCTCTG	-0.0657
ATTTGTTC	0.214
CGCACGCC	-0.0515
GGTCGTAA	0.224
GGCCCGAC	-0.0703
AACTCTTA	0.0943
ATCGAGGA	0.0204
CGCACCGC	0.0659
ATGTATTA	-0.0657
GACATCGA	-0.116
GTTACGGA	0.213
AAGCTACC	0.183
TACTCGCA	0.139
ACACTCAA	0.139
ACCTGCCC	0.0678
AATGCCAA	0.101
AAACAAGC	-0.0864
AACGGTCC	-0.114
AGCACCTG	-0.172
GCTATACC	0.0485
CGCTCACC	-0.0494
CGACTGCA	-0.0386
AACCGACT	-0.201
AACAAACC	0.102
AGTGACTA	0.0436

Sequence	PBM E-score
ACAGATGC	-0.171
GCAAAAAC	0.136
AGGCCATG	0.128
ACCTATAG	0.3
CTCAAGAC	-0.0417
TCAGTAAA	0.155
CCTCATAC	0.0122
CGTCCCAA	-0.0759
GTTAACTA	0.263
CGCCGCGA	0.0914
CTCACCCC	-0.015
CATCTCCC	-0.145
ATGGCCAC	0.185
TAAGAGGA	-0.0917
ATGAAAAT	0.156
AAAATTAC	0.201
CAGTTCAG	0.0166
AAGGCGAG	-0.0765
GTTGAAAA	0.235
CCGTCTAA	0.00658
CTGTAAGA	0.0201
ATAAACAT	-0.0337
GAATTGGC	-0.197
GTATGCAA	0.0515
CAATCCAC	-0.0351

Sequence	PBM E-score
TAAGCTGA	0.0318
ACCGTGTA	0.146
AACCGGTA	0.0841
TAACCTAA	0.399
CTCACCAC	-0.18
CTGAAGAA	-0.163
TCATATAA	0.195
GTACATCA	0.0732
TAAATTCA	-0.1
CCACCAGA	-0.00544
AGCTGCCT	-0.241
ATCGAATA	-0.122
GGGAGAGA	-0.251
CTCTAGAA	-0.0288
CCTTGGGC	0.0263
AGCTTTAG	-0.191
GGGCACAA	0.088
ACGGTCCG	-0.197
GTCGAAGA	-0.118
CGTAGACG	-0.328
CGACGTAC	-0.187
AACAACTC	0.00164
